According to the supplement of paper PMC9446081:
The whole screen tested about 39,000 compounds, of which about 220 (0.56%) showed activity. The list shows a part of the results.

What follows are molecules tested on Escherichia coli K-12 BW25113 (assay: relative growth (OD600 normalised to plate interquartile mean) (fraction); higher = less growth inhibition, active = 0.2 or less). Conditions: 50 µM; LB; incubation time: overnight (16-24 h).
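Also: static incubation at 37 °C against the wild-type strain, values averaged over two biological replicates.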

| Structure (SMILES) | relative growth |
| --- | --- |
| CC[C@@]1(O)C(=O)OCc2c1cc1n(c2=O)Cc2c-1nc1cc(F)c(C)c3c1c2[C@@H](N)CC3 | inactive: 1.02 |
| Cc1noc(C)c1NC(=O)Nc1cccc2c1O[C@@H](CN(C)Cc1ccc(C(=O)Nc3ccccc3N)cc1)[C@@H](C)CN([C@H](C)CO)C2=O | inactive: 1.02 |
| C[C@H](CO)N1C[C@H](C)[C@H](CN(C)C(=O)Cc2ccccc2)OCCCC[C@H](C)Oc2ccc(NS(=O)(=O)c3ccc(Cl)cc3)cc2C1=O | inactive: 1.03 |
| C[C@H]1CN([C@@H](C)CO)C(=O)Cc2cc(NS(=O)(=O)c3cn(C)cn3)ccc2O[C@@H]1CN(C)C | inactive: 0.993 |
| C[C@@H]1CN([C@@H](C)CO)C(=O)c2cc(C#Cc3cccc(F)c3)cnc2O[C@H]1CN(C)C(=O)C1CCOCC1 | inactive: 1.02 |
| CC(C)(O)[C@@H]1CC[C@]2(CO)[C@@H](O)CC[C@](C)(O)[C@H]2[C@@H]1O[C@@H]1O[C@H](CO)[C@@H](O)[C@H](O)[C@H]1O | inactive: 0.985 |
| C[C@H]1CN([C@@H](C)CO)C(=O)Cc2cc(NC(=O)C3CC3)ccc2O[C@H]1CN(C)S(=O)(=O)c1ccc(Cl)cc1 | inactive: 1.02 |
| CC(C)NC(=O)Nc1ccc2c(c1)C(=O)N([C@@H](C)CO)C[C@H](C)[C@@H](CN(C)Cc1ccc(C(F)(F)F)cc1)OCCCC[C@@H](C)O2 | inactive: 0.985 |
| C=C(C)CCn1cccc1C(C)=O | inactive: 0.995 |
| C[C@H](CO)N1C[C@H](C)[C@H](CN(C)C(=O)Nc2ccc3c(c2)OCO3)OCCCC[C@H](C)Oc2ccc(NS(=O)(=O)c3cccs3)cc2C1=O | inactive: 1.05 |
| C[C@@H]1CN([C@@H](C)CO)S(=O)(=O)c2ccc(Br)cc2O[C@H]1CN(C)C(=O)C1CCCCC1 | inactive: 0.971 |
| C[C@@H]1CN([C@@H](C)CO)C(=O)Cc2cc(NC(=O)C3CCCCC3)ccc2O[C@H]1CN(C)S(=O)(=O)c1cn(C)cn1 | inactive: 1.02 |
| C[C@@H]1CN([C@@H](C)CO)S(=O)(=O)c2ccc(C#CCN(C)C)cc2O[C@H]1CN(C)C(=O)CN(C)C | inactive: 0.998 |
| COCC#Cc1ccc2c(c1)O[C@H](CN(C)S(=O)(=O)c1cccc(F)c1)[C@@H](C)CN([C@@H](C)CO)S2(=O)=O | inactive: 1.01 |
| C[C@H]1CN([C@@H](C)CO)C(=O)Cc2cc(NC(=O)Nc3ccc(F)cc3)ccc2O[C@@H]1CN(C)Cc1ccc(-c2ccccc2)cc1 | inactive: 0.998 |
| COc1ccc(S(=O)(=O)N(C)C[C@H]2Oc3c(NC(=O)c4cnccn4)cccc3C(=O)N([C@H](C)CO)C[C@@H]2C)cc1 | inactive: 1.01 |
| C[C@@H]1CN([C@H](C)CO)C(=O)Cc2cc(NC(=O)c3ccncc3)ccc2O[C@@H]1CN(C)Cc1ccncc1 | inactive: 1.01 |
| C[C@H](CO)N1C[C@H](C)[C@@H](CN(C)C(=O)NC2CCCCC2)Oc2c(NC(=O)Nc3ccc(C(F)(F)F)cc3)cccc2C1=O | inactive: 0.703 |
| C[C@H]1CN([C@@H](C)CO)C(=O)c2cccc(NS(=O)(=O)c3cn(C)cn3)c2O[C@@H]1CN(C)C(=O)Nc1ccc2c(c1)OCO2 | inactive: 1.02 |
| C[C@H](CO)N1C[C@H](C)[C@@H](CN(C)S(=O)(=O)c2cn(C)cn2)Oc2ccc(NC(=O)CCC(F)(F)F)cc2CC1=O | inactive: 0.983 |
| C[C@H]1CN([C@@H](C)CO)C(=O)Cc2cc(NS(C)(=O)=O)ccc2O[C@@H]1CN(C)S(=O)(=O)c1cccs1 | inactive: 0.998 |

| Structure (SMILES) | relative growth |
| --- | --- |
| C[C@H](CO)N1C[C@H](C)[C@H](CN(C)C(=O)c2cc(-c3ccccc3)on2)OCc2cn(nn2)CCCC1=O | inactive: 1.01 |
| O=C(NCc1ccccc1)[C@@H]1c2ccccc2C(=O)N(Cc2ccccc2C(F)(F)F)[C@H]1c1ccc(CO)cc1 | inactive: 1 |
| C[C@H](CO)N1C[C@H](C)[C@H](CN(C)Cc2ccc(C(F)(F)F)cc2)Oc2c(NC(=O)Nc3ccc4c(c3)OCO4)cccc2C1=O | inactive: 1.01 |
| Cc1nc(CSCc2ccc(Cl)cc2Cl)cs1 | inactive: 1.02 |
| CCN1CCCC[C@@H]1C(=O)O | inactive: 0.994 |
| C[C@@H]1CCCCO[C@H](CN(C)Cc2ccc(C(F)(F)F)cc2)[C@@H](C)CN([C@H](C)CO)C(=O)c2cc(NC(=O)c3ccccc3)ccc2O1 | inactive: 1 |
| C[C@@H]1CN([C@@H](C)CO)S(=O)(=O)c2ccc(C#CC3CC3)cc2O[C@H]1CN(C)C(=O)Cc1ccncc1 | inactive: 1.04 |
| C[C@H](CO)N1C[C@H](C)[C@@H](CN(C)S(=O)(=O)c2cccs2)Oc2c(NC(=O)Nc3cccc4ccccc34)cccc2C1=O | inactive: 1.01 |
| COC(=O)c1c2oc(c1C(=O)OC)C(=O)N[C@@H](Cc1ccccc1)Cn1cc(nn1)CNC(=O)[C@H](Cc1ccccc1)NC(=O)N[C@@H](COC(=O)NCCCCCC(=O)NO)CC2 | inactive: 1.02 |
| C[C@H]1CCCCO[C@H](CN(C)Cc2ccccc2)[C@@H](C)CN([C@@H](C)CO)C(=O)c2cc(NC(=O)c3ccncc3)ccc2O1 | inactive: 0.995 |
| Cc1ccc(S(=O)(=O)Nc2ccc3c(c2)C(=O)N([C@H](C)CO)C[C@H](C)[C@@H](CN(C)S(=O)(=O)c2ccc(C)cc2)OCCCC[C@H](C)O3)cc1 | inactive: 0.937 |
| CCOc1ccc2nc(C34CC5CC(CC(C5)C3)C4)ccc2c1 | inactive: 1.02 |
| O=C(C[C@H]1CC[C@H]2[C@@H](COC[C@H](O)CN2S(=O)(=O)c2ccc(F)cc2)O1)N[C@H]1CCN(Cc2ccccc2)C1 | inactive: 1.01 |
| C[C@H]1CN([C@@H](C)CO)C(=O)c2cc(NC(=O)CCCCCC(=O)Nc3ccccc3N)ccc2O[C@@H]1CN(C)S(C)(=O)=O | inactive: 0.987 |
| Cc1cccc(S(=O)(=O)N2C[C@H](O)COC[C@H]3O[C@H](CC(=O)NCCCN4CCOCC4)CC[C@@H]32)c1 | inactive: 0.988 |
| COC(=O)CCC(=O)OC | inactive: 1.02 |
| CC(C)c1ccccc1OC[C@@H](O)CN | inactive: 0.975 |
| O=C(NS(=O)(=O)c1ccccc1)C1CC1 | inactive: 0.956 |
| C[C@H]1CN([C@@H](C)CO)C(=O)Cc2cc(NC(=O)Nc3ccc4c(c3)OCO4)ccc2O[C@H]1CN(C)Cc1ccc(Oc2ccccc2)cc1 | inactive: 0.986 |
| C[C@H](CO)N1C[C@H](C)[C@H](CN(C)C(=O)Nc2ccc3c(c2)OCO3)OCCCC[C@H](C)Oc2ccc(NC(=O)Nc3ccccc3)cc2C1=O | inactive: 1.05 |
| Cc1noc(C)c1NC(=O)Nc1ccc2c(c1)CC(=O)N([C@@H](C)CO)C[C@@H](C)[C@@H](CN(C)Cc1ccc(Oc3ccccc3)cc1)O2 | inactive: 0.995 |

| Structure (SMILES) | relative growth |
| --- | --- |
| Cc1cc(C(=O)Nc2ccc3c(c2)C(=O)N(C)[C@@H]2CC[C@H](CC(=O)NCC(F)(F)F)O[C@@H]2CO3)no1 | inactive: 0.982 |
| COCC#Cc1ccc2c(c1)O[C@H](CN(C)S(=O)(=O)c1ccc(C)cc1)[C@H](C)CN([C@@H](C)CO)S2(=O)=O | inactive: 1.03 |
| O=C(CCCCCCC(=O)N/N=C/[C@H](O)[C@@H](O)[C@H](O)CO)NO | inactive: 0.984 |
| Cc1noc(C)c1S(=O)(=O)N(C)C[C@@H]1OCCCC[C@@H](C)Oc2ccc(NC(=O)Nc3cccc4ccccc34)cc2C(=O)N([C@@H](C)CO)C[C@H]1C | inactive: 1.04 |
| NC(=O)C1CCCN1C(=O)C(Cc1c[nH]cn1)NC(=O)C1CCC(=O)N1 (stereo unspecified) | inactive: 0.995 |
| C[C@@H]1CN([C@@H](C)CO)C(=O)c2cccc(NC(=O)C3CCOCC3)c2O[C@H]1CN(C)Cc1ccc(Oc2ccccc2)cc1 | inactive: 1.01 |
| C[C@H](O)C#Cc1ccc2c(c1)O[C@@H](CN(C)C(=O)CN(C)C)[C@H](C)CN([C@H](C)CO)S2(=O)=O | inactive: 1.02 |
| CC(CN)(Cc1ccccc1Cl)C(=O)O (stereo unspecified) | inactive: 0.993 |
| CN1CCC(=C2c3ccccc3CCc3sccc32)CC1.O=C(O)CC(O)C(=O)O | inactive: 1.07 |
| CO[C@@H]1CN(C)C(=O)c2cc(NC(=O)Nc3ccccc3)ccc2OC[C@@H](C)N(C(=O)CN(C)C)C[C@H]1C | inactive: 1 |
| O=C(Cn1c(=O)n(-c2ccccc2)c(=O)n1CC(=O)N1CCOCC1)N1CCOCC1 | inactive: 1.01 |
| Cc1noc(C)c1NC(=O)Nc1cccc2c1O[C@@H](CN(C)S(=O)(=O)c1ccccc1)[C@H](C)CN([C@H](C)CO)C2=O | inactive: 1.04 |
| CC(C)NC(=O)Nc1ccc2c(c1)C(=O)N([C@H](C)CO)C[C@H](C)[C@H](CN(C)S(=O)(=O)c1cn(C)cn1)OCCCC[C@H](C)O2 | inactive: 0.993 |
| C[C@@H]1CN([C@H](C)CO)C(=O)c2cc(NC(=O)CCCCCC(=O)Nc3ccccc3N)ccc2O[C@@H](C)CCCCO[C@@H]1CN(C)C(=O)C1CCCCC1 | inactive: 0.96 |
| C[C@H]1CN([C@@H](C)CO)C(=O)c2cc(NC(=O)CCC(F)(F)F)ccc2O[C@@H]1CN(C)Cc1ccc(Cl)c(Cl)c1 | inactive: 0.976 |
| COC(=O)c1c(C(=O)OC)c2n(c(=O)c1-c1ccccc1)[C@@H]1c3ccccc3O[C@@](CO)([C@@H]1CO)N2C | inactive: 0.98 |
| C[C@@H]1CCCCO[C@@H](CN(C)CC2CC2)[C@H](C)CN([C@H](C)CO)C(=O)c2cc(NC(=O)Nc3ccc(C(F)(F)F)cc3)ccc2O1 | inactive: 0.963 |
| CC(C)(C)S(=O)N1Cc2cc(C(=O)N3CCN(Cc4ccccc4)CC3)nc(-c3cccc(-c4cc5ccccc5o4)c3)c2[C@H]1CCO (stereo partly specified) | inactive: 0.978 |
| C[C@@H]1CN([C@@H](C)CO)C(=O)c2cc(NC(=O)Nc3ccc4c(c3)OCO4)ccc2O[C@@H](C)CCCCO[C@@H]1CN(C)Cc1ccc(C(=O)O)cc1 | inactive: 1.01 |
